Measured values published in PubChem BioAssay (NCI).
Where “and” joins values, the source holds several entries; their conditions need not be identical. Equal values may be shown once.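 Values below derive from 48-hour exposures of cells grown in 96-well plates, with endpoints linearly interpolated between the two concentrations bracketing the appropriate inhibition level. At the GI50, growth is halved. The concentration for full growth arrest is given as TGI.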

System: NCI-H322M lung
Test: growth of human tumour cells (NCI), 48 h

SMILES | TGI | GI50
COc1ccc2nc(NC(=O)C(=O)C(C(=O)c3ccccc3-c3ccccc3)C3OC(=O)c4ccccc43)sc2c1 (stereo not given) | 61.5 µM | –
Nc1c(C(=O)c2cccc(C#CCN3CCOCC3)c2)cnn1-c1ccc(F)cc1 | > 25 µM | > 25 µM
NC1CC(=O)c2csc(Cl)c21 (stereo not given) | 32.7 µM | –
CCOC(=O)N1N=NC2C3OC(C[C@@]3(C#N)OC(C)=O)[C@H]21 (stereo not given in full) | > 100 µM | –
O=C(O)c1nc2ccccc2nc1Nc1ccc(F)cc1 | > 100 µM | –
ClC1=NC(Cl)C(Cl)=N/C1=N\c1ncn[nH]1 (stereo not given) | 20.6 µM | 7.68 µM
CC1(O)CC23CC1CCC2(C)C12CCCC(C)(C(=O)O1)C2CC3O (stereo not given) | > 100 µM | –
CN(C)CCCNc1ccnc2cc([N+](=O)[O-])ccc12 | 46.9 µM | –
Cc1ccccc1NC(=O)C1C(=O)N(c2ccccc2C)C(=O)/C1=N\N (stereo not given) | > 100 µM | –
ICCC(c1ccccc1)(c1ccccc1)c1ccccc1 | 25.1 µM | 12.3 µM
Cc1ccc(C2(O)CC(c3ccc([N+](=O)[O-])o3)=NN2C(=O)COc2ccccc2Cl)cc1 (stereo not given) | > 88.2 µM | –
O=c1cc(O)c2ccccc2o1 | > 100 µM | –
S=C(N/N=C(/c1ccccc1)c1ccccn1)Nc1ccc(Cl)cc1 | 14.4 µM | –
O=C1c2cc3c(cc2[C@@H]2[C@H]1c1ccc([N+](=O)[O-])cc1C(=O)N2CCCCl)OCO3 | 0.0279 µM | < 0.01 µM
O=C(O)Cc1cccc2c1OC(c1ccccc1)C(C(=O)c1ccccc1)C2=O (stereo not given) | > 100 µM | –
CC1(C)N=C(N)N=C(N)N1c1cccc(CCCCc2ccccc2)c1 | 19.2 µM | 0.537 µM
C[C@]12CC[C@H](O)C=C1CC[C@@H]1[C@@H]2CC[C@]2(C)C(=N/O)/C(=C/c3ccncc3)C[C@@H]12 | 48.2 µM | –
Nc1nc(N)c(N=O)c(Nc2ccc(I)cc2)n1 | > 100 µM | –
CN1C(=O)[C@@H]2N(CSC2(C)C)C1=S | > 100 µM | –
Cn1c(=O)c2c(nc(N)n2C2OC(CO)C(O)C2O)n(C)c1=O (stereo not given) | > 100 µM | –
CCC[CH2][Ge]([CH2]CCC)([CH2]CCC)[O]C(=O)C(O)c1ccccc1 (stereo not given) | 35.7 µM | 7.65 µM
Cc1cc(S(=O)(=O)NC2=NC(c3ccccc3)c3ccccc3N2)c(S)cc1Cl (stereo not given) | > 100 µM | –
NCCCCN(CCCN)Cc1ccccc1 | > 100 µM | –
CC1=CC2=C(C(N)=O)C(=O)OC2(C)C(c2ccccc2)C1 (stereo not given) | > 100 µM | –

SMILES | TGI | GI50
COCOCC1CCCN1CN1CCC[C@H]1COCOC (stereo not given in full) | > 100 µM | –
CC#Cc1cc2c(cc1O)CC[C@@H]1[C@@H]2CC[C@]2(C)[C@@H](O)CC[C@@H]12 | 43 µM | –
NNc1ccccc1Cl | > 100 µM | –
Cn1c(Sc2ccc(-c3cccnc3)n2C)ccc1-c1cccnc1 | > 57.4 µM | –
CCCc1c(C(=O)OCC)[nH]c(-c2ccc(-c3[nH]c(C(=O)OCC)c(CCC)c3C(=O)OCC)o2)c1C(=O)OCC | > 100 µM | –
CCOC(=O)C(Cc1ccccc1)NC(=O)OC(C)(C)C (stereo not given) | > 100 µM | –
COC(=O)[C@@H]1C2OC(C)(C)OC2CN1C(=O)OCc1ccccc1 (stereo not given in full) | > 100 µM | –
O=c1cc(-c2ccccc2)oc2ccc(-c3ccc4oc(-c5ccccc5)cc(=O)c4c3)cc12 | 62.9 µM | –
CC[C@H](C)[C@H](NC(=O)Nc1ccccc1)C(=O)N(C)[C@H](C[C@@H](OC(C)=O)c1nc(C(=O)N[C@@H](Cc2ccccc2)C[C@H](C)C(=O)OC)cs1)C(C)C | > 100 µM | 7.78 µM
COc1cccc(-n2ncc3c(N/N=C/c4ccc(S(C)(=O)=O)cc4)ncnc32)c1 | > 25 µM | 12.8 µM
COc1cc2nc(-c3ccccc3F)[nH]c(=O)c2cc1OC | > 100 µM | –
O=C(Nc1nnc(-c2c(Cl)c(Cl)c(Cl)c(Cl)c2-c2nc3cc(C(=O)c4ccccc4)ccc3[nH]2)o1)c1ccccc1 | 46 µM | –
Nc1ncnc2c(C3OC(CO)C(O)C3O)[nH]nc12 (stereo not given) | 9.51 µM and 11.6 µM | 0.0781 µM
C#C[C@@]1(O)[C@@H](CO)O[C@@H](n2ccc3c(N)ncnc32)[C@@H]1O | 6.08 µM | 1.28 µM
O=C1c2ccccc2-c2n[nH]c3cccc1c23 | > 100 µM | 20.3 µM
CC(C)=C[C@@H]1C[C@H](C)c2c(O)cc(C)c3c2C1=C(C)C(=O)C3=O | 25.5 µM | –
COc1ccccc1N1C(=O)CS(=O)(=O)C1c1cccc(Oc2ccccc2)c1 (stereo not given) | 41.7 µM | –
C[C@]12CCC3c4ccc(O)cc4CCC3C1Cc1ccc(O)cc12 (stereo not given in full) | 30.2 µM | 14.6 µM
NC(=O)Nc1cc(O)ccc1N=Nc1ccc(S(=O)(=O)Nc2ccccn2)cc1 | > 100 µM | –
N#CSCc1c(Cl)cccc1Cl | > 100 µM | 37.5 µM
Cc1ccc2c(c1)SC(c1cc3c(cc1Br)OCO3)S2 (stereo not given) | > 31.6 µM | –
COc1c(C)c(C/C=C(\C)CCCCO)c(OC)c(OC)c1OC | > 100 µM | –
O=C1CSC(c2ccc(Cl)cc2)N1c1ccc(-c2ccc(-n3c(-c4ccccc4)nc4ccccc4c3=O)cc2)cc1 (stereo not given) | > 100 µM | –
